Data taken from a collection of fitness landscapes (doi:10.1016/j.celrep.2020.107928).
Over roughly 81,000 sequences, “one-hybrid fitness for binding parS DNA” has its median near -0.17; the highest 2% begin near 0.51. The list shows a part of the results.

B1: Caulobacter ParB omega fusion; a variant is named by its letters at X, in order, B8GW30 (parent)
chain: MESVVVGEPGMSEGRRGLGRGLSALLGEVDAAPAQAPGEQLGGSREAPIEILQRNPDQPRRTFREEDLEDLSNSIREKGVLQPILVRPSPDTAGEYQIVAGERAWRAAQRAGLKTVPIMVRELDDLAVLEIGIIENVQRADLNVLEEALSYKVLMEKFERTQENIAQTIGKSXSHVANXMRLLXLPDEVQSYLVSGELTAXHARAIAAAADPVALAKQIIEGGLSVRETEALARKAPNLSAGKSKGGRPPRVKDTDTQALESDLSSVLGLDVSIDHRGSTGTLTITYATLEQLDDLCNRLTRGI

Variants of: B1
Test: one-hybrid fitness for binding parS DNA (scaled: cognate 1, non-cognate 0); higher = stronger binding
Details: with parS DNA site
How it was run: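 Selection: bacterial one-hybrid in E. coli USO, HIS3 reporter with the site 19 bp from the promoter, 48 hours at 37°C on M9-minus-histidine plus 0.1 mM IPTG and 5 mM 3-AT. Libraries were Caulobacter ParB with four randomised specificity codons, sequenced on Illumina before and after selection. Fitness is the rescaled log change in variant-to-wild-type read ratio, anchored to the cognate and non-cognate sites.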

Row | Variant | one-hybrid fitness for binding parS DNA
1 | CQPP | ≤ 0.2
2 | PDYW | ≤ 0.2
3 | TQAS | ≤ 0.2
4 | SEHI | ≤ 0.2
5 | CHDS | ≤ 0.2
6 | QMQW | ≤ 0.2
7 | YNNT | ≤ 0.2
8 | LQQR | ≤ 0.2
9 | PDHL | ≤ 0.2
10 | ASSL | ≤ 0.2
11 | HNFR | ≤ 0.2
12 | VASP | ≤ 0.2
13 | REQE | ≤ 0.2
14 | SGSQ | ≤ 0.2
15 | YFST | 0.481
16 | SLGS | ≤ 0.2
17 | GQSW | ≤ 0.2
18 | RGMA | 0.283
19 | SSKM | ≤ 0.2
20 | SPPE | ≤ 0.2
21 | EFSC | ≤ 0.2
22 | HEEL | ≤ 0.2
23 | GHPE | ≤ 0.2
24 | LNRF | ≤ 0.2
25 | YRYE | ≤ 0.2
26 | DTQL | ≤ 0.2

Row | Variant | one-hybrid fitness for binding parS DNA
27 | VLSR | ≤ 0.2
28 | VRGT | ≤ 0.2
29 | GIKR | ≤ 0.2
30 | DAIP | ≤ 0.2
31 | SKYN | ≤ 0.2
32 | RQHE | ≤ 0.2
33 | GANV | ≤ 0.2
34 | RMGC | 0.952
35 | NYCK | ≤ 0.2
36 | QRGK | ≤ 0.2
37 | FVNN | ≤ 0.2
38 | AEVY | ≤ 0.2
39 | TMIG | ≤ 0.2
40 | IIGS | ≤ 0.2
41 | EKIS | ≤ 0.2
42 | GATS | ≤ 0.2
43 | TVNK | ≤ 0.2
44 | RGGR | ≤ 0.2
45 | FHKT | ≤ 0.2
46 | VLGT | ≤ 0.2
47 | RCCI | ≤ 0.2
48 | NPPA | ≤ 0.2
49 | NTLR | ≤ 0.2
50 | HTWV | ≤ 0.2
51 | PRVT | ≤ 0.2
52 | AIDT | ≤ 0.2

Row | Variant | one-hybrid fitness for binding parS DNA
53 | FTRV | ≤ 0.2
54 | FHKV | ≤ 0.2
55 | QMMK | ≤ 0.2
56 | CYGL | ≤ 0.2
57 | TMDL | ≤ 0.2
58 | NKKY | ≤ 0.2
59 | VDTA | ≤ 0.2
60 | QEPV | ≤ 0.2
61 | HASM | ≤ 0.2
62 | RWIE | ≤ 0.2
63 | AGWE | ≤ 0.2
64 | SWCF | ≤ 0.2
65 | AILG | ≤ 0.2
66 | AIQL | ≤ 0.2
67 | YSTK | ≤ 0.2
68 | RADK | ≤ 0.2
69 | RGCM | ≤ 0.2
70 | CDVT | ≤ 0.2
71 | TWDV | ≤ 0.2
72 | INQR | ≤ 0.2
73 | EAVR | ≤ 0.2
74 | RGAN | ≤ 0.2
75 | CDFR | ≤ 0.2
76 | PDVL | ≤ 0.2
77 | GQQN | ≤ 0.2
78 | SAVL | ≤ 0.2

Row | Variant | one-hybrid fitness for binding parS DNA
79 | AVNS | ≤ 0.2
80 | RNTI | ≤ 0.2
81 | WFLT | ≤ 0.2
82 | TEIT | ≤ 0.2
83 | VDPH | ≤ 0.2
84 | VQET | ≤ 0.2
85 | MYAM | ≤ 0.2
86 | LSNP | ≤ 0.2
87 | VWET | ≤ 0.2
88 | YMVG | ≤ 0.2
89 | RRCN | 0.452
90 | GLNR | ≤ 0.2
91 | AFDR | ≤ 0.2
92 | SVER | ≤ 0.2
93 | GEAA | ≤ 0.2
94 | HRVC | ≤ 0.2
95 | RVSN | 0.426
96 | YNLL | ≤ 0.2
97 | FCAH | ≤ 0.2
98 | HSAF | ≤ 0.2
99 | VWAC | ≤ 0.2
100 | YARL | ≤ 0.2
101 | FYGT | ≤ 0.2
102 | KMHS | ≤ 0.2
103 | DKML | ≤ 0.2
104 | TLGS | ≤ 0.2

Row | Variant | one-hybrid fitness for binding parS DNA
105 | PDNC | ≤ 0.2
106 | PPVA | ≤ 0.2
107 | YFWL | ≤ 0.2
108 | IIGK | ≤ 0.2
109 | KHLD | ≤ 0.2
110 | THTW | ≤ 0.2
111 | GWIC | ≤ 0.2
112 | WRPS | ≤ 0.2
113 | WPSG | ≤ 0.2
114 | NFSN | ≤ 0.2
115 | LRPK | ≤ 0.2
116 | QRDD | ≤ 0.2
117 | TFNT | ≤ 0.2
118 | RLSS | 0.991
119 | GASF | ≤ 0.2
120 | YLHS | ≤ 0.2
121 | WEQG | ≤ 0.2
122 | KPWQ | 0.298
123 | CRHV | ≤ 0.2
124 | LDYW | ≤ 0.2
125 | YMTF | ≤ 0.2
126 | WIRM | ≤ 0.2
127 | RREL | ≤ 0.2
128 | HCSV | ≤ 0.2
129 | QTMM | ≤ 0.2
130 | KIES | ≤ 0.2

Row | Variant | one-hybrid fitness for binding parS DNA
131 | DIRY | ≤ 0.2
132 | EGQV | ≤ 0.2
133 | FKTR | ≤ 0.2
134 | NSWF | ≤ 0.2
135 | WVPM | ≤ 0.2
136 | DDVG | ≤ 0.2
137 | MARW | ≤ 0.2
138 | MTRW | ≤ 0.2
139 | RTSK | ≤ 0.2
140 | DMVA | ≤ 0.2
141 | FGQY | ≤ 0.2
142 | MFKC | ≤ 0.2
143 | VFLR | ≤ 0.2
144 | AVQC | ≤ 0.2
145 | PLDT | ≤ 0.2
146 | NCVK | ≤ 0.2
147 | HQSC | ≤ 0.2
148 | DAGL | ≤ 0.2
149 | YLQL | ≤ 0.2
150 | HHWI | ≤ 0.2
151 | SVHR | ≤ 0.2
152 | NSDM | ≤ 0.2
153 | WPRT | ≤ 0.2
